{"source": "paper PMC4336329", "about": "(PLoS ONE, 2015)", "note": "In all, about 310,000 compounds went through this assay and about 2,200 (0.71%) showed an effect of 50% or more. Effects have a minus sign here. This is one part of the list."}
{"target": "human ether-à-go-go-related gene (hERG) potassium channel (human, UniProt Q12809)", "sequence (Q12809 whole entry, looked up)": "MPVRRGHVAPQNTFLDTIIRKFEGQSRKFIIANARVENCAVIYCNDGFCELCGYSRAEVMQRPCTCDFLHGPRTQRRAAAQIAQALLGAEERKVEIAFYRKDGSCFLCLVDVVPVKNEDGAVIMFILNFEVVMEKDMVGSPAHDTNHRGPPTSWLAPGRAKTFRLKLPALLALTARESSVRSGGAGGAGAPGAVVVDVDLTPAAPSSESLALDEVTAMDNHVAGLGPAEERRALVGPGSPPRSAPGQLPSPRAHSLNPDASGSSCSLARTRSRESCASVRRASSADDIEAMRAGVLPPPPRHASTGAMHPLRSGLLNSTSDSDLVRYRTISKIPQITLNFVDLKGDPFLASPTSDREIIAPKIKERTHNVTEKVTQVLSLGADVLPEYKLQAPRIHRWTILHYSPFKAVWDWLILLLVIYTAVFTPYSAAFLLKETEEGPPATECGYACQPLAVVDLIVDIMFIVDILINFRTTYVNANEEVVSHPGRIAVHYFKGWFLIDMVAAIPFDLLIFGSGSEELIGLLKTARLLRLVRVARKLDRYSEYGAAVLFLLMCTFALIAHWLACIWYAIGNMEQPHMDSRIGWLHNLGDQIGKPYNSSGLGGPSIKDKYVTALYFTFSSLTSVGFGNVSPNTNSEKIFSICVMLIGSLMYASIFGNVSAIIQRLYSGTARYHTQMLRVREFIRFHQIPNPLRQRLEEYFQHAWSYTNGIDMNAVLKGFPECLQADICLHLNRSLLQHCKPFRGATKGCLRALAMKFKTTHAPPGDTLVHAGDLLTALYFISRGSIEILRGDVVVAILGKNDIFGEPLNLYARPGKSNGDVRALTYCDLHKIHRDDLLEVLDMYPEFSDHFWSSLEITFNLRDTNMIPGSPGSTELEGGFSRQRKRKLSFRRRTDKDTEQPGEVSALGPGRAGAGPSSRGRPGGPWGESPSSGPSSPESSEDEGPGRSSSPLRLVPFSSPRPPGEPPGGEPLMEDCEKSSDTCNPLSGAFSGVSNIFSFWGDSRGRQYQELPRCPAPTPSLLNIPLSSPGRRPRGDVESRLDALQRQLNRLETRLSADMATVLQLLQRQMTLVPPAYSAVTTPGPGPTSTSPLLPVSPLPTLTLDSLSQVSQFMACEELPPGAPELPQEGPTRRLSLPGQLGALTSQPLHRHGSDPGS", "assay": "primary screen, population patch clamp on CHO cells stably expressing hERG", "units": {"hERG current change (%, negative = inhibition) at 1uM": "%"}}
{"smiles": "CCCCN(C(=O)CCC(=O)OCC(=O)NCc1ccccc1)c1c(N)n(CCC)c(=O)[nH]c1=O", "hERG current change (%, negative = inhibition) at 1uM": 3.16}
{"smiles": "COc1cccc(NC(=O)C2CSC3(C)CCC(=O)N23)c1", "note": "(centres unmarked)", "hERG current change (%, negative = inhibition) at 1uM": 9.45}
{"smiles": "COc1cc(NC(=O)CCCNC(=O)Cn2cnc3sc4c(c3c2=O)CCCC4)cc(OC)c1OC", "hERG current change (%, negative = inhibition) at 1uM": 23.1}
{"smiles": "OCC[C@H]1C[C@H](O)[C@@H](O)[C@]2(CCCO2)O1", "hERG current change (%, negative = inhibition) at 1uM": 18.8}
{"smiles": "CC1CCc2cc(F)ccc2N1C(=O)CSc1nnc2c3ccccc3n(C)c2n1", "note": "(centres unmarked)", "hERG current change (%, negative = inhibition) at 1uM": 36.1}
{"smiles": "O=C(N[C@@H](Cc1ccccc1)C(=O)OCc1ccccc1)c1nc[nH]c1C(=O)N1CCc2ccccc2C1", "hERG current change (%, negative = inhibition) at 1uM": 10}
{"smiles": "COc1cccc(-c2nc(CS(=O)(=O)CC(=O)NC3CCCCC3C)c(C)o2)c1", "note": "(centres unmarked)", "hERG current change (%, negative = inhibition) at 1uM": -3.64}
{"smiles": "Oc1ccccc1N1CCN(C(c2ccccc2)c2ccccc2)CC1", "hERG current change (%, negative = inhibition) at 1uM": 13.7}
{"smiles": "O=C(OCc1nnc(-c2ccccc2)o1)C1CC(=O)N(CCc2ccccc2)C1", "note": "(centres unmarked)", "hERG current change (%, negative = inhibition) at 1uM": 8.19}
{"smiles": "O=C(O)CCCn1cc(NC(=O)COc2ccccc2[N+](=O)[O-])cn1", "hERG current change (%, negative = inhibition) at 1uM": 12}
{"smiles": "CCn1cc(/C=C(\\NC(=O)c2ccc(OC)c(OC)c2)C(=O)NCCCO)c2ccccc21", "hERG current change (%, negative = inhibition) at 1uM": 15.8}
{"smiles": "COCC(C)n1c(SCC(=O)Nc2oc(C)c3c(C)n[nH]c(=O)c23)nc2ccccc2c1=O", "note": "(centres unmarked)", "hERG current change (%, negative = inhibition) at 1uM": 16.7}
{"smiles": "CCOC(=O)C1=C(CSc2nc3c(cc2C#N)CN(C)CC3)OC(N)=C(C#N)C1c1ccncc1", "note": "(centres unmarked)", "hERG current change (%, negative = inhibition) at 1uM": 12.1}
{"smiles": "Cc1cc(C)cc(NC(=O)C(Sc2nnc(C)c(=O)[nH]2)c2ccccc2)c1", "note": "(centres unmarked)", "hERG current change (%, negative = inhibition) at 1uM": 12.8}
{"smiles": "Cc1onc(-c2c(F)cccc2Cl)c1C(=O)NCc1ccccn1", "hERG current change (%, negative = inhibition) at 1uM": 12.3}
{"smiles": "O=C(CS(=O)CC(=O)N(CC(=O)NC1CCCC1)C1CCCCC1)Nc1ccc(F)cc1", "note": "(centres unmarked)", "hERG current change (%, negative = inhibition) at 1uM": 4.06}
{"smiles": "O=C(Nc1cccc(NC(=O)c2cccs2)c1)c1ccc2c(c1)OCCO2", "hERG current change (%, negative = inhibition) at 1uM": 6.14}
{"smiles": "CCN(c1ccccc1)S(=O)(=O)c1ccc2[nH]cc(C(=O)N3CCOCC3)c(=O)c2c1", "hERG current change (%, negative = inhibition) at 1uM": 8.43}
{"smiles": "O=C(CSc1nc2c(sc3ccccc32)c(=O)n1CCO)NCc1ccco1", "hERG current change (%, negative = inhibition) at 1uM": -1}
{"smiles": "COc1ccc(OC)c(/C=C/C(=O)N2CCN(S(=O)(=O)c3cc(C)ccc3C)CC2)c1", "hERG current change (%, negative = inhibition) at 1uM": 10.6}
{"smiles": "COc1ccccc1CNC(=O)c1ccccc1OC", "hERG current change (%, negative = inhibition) at 1uM": 5.69}
{"smiles": "CN1CCN(c2cc(=O)n(C3CCCCC3)c(=O)[nH]2)CC1", "hERG current change (%, negative = inhibition) at 1uM": 0.179}
{"smiles": "Cc1ccccc1OCC(=O)Nc1ccc(N2CCN(C)CC2)c(Cl)c1", "hERG current change (%, negative = inhibition) at 1uM": -31.8}
{"smiles": "CCN(CC(=O)NCc1ccc(Cl)cc1)S(=O)(=O)c1ccc(F)cc1", "hERG current change (%, negative = inhibition) at 1uM": 6.24}
{"smiles": "Cc1cc(C)c2nc(SCC(=O)Nc3cc(C)on3)c(C#N)cc2c1", "hERG current change (%, negative = inhibition) at 1uM": 11.2}
{"smiles": "O=C(Nc1ccc(C(=O)N2CCCCC2)cc1)c1cccc([N+](=O)[O-])c1", "hERG current change (%, negative = inhibition) at 1uM": 6.73}
{"smiles": "O=S(=O)(c1ccc(F)c(F)c1F)N1CCN(C(=S)NC2CC3CCC2C3)CC1", "note": "(centres unmarked)", "hERG current change (%, negative = inhibition) at 1uM": 9.35}
{"smiles": "COc1ccc(/C=C/C(=O)NCCN2CCOCC2)cc1OC", "hERG current change (%, negative = inhibition) at 1uM": 17.5}
{"smiles": "CCCC(=O)NC(Nc1cccc(C(F)(F)F)c1)C(Cl)(Cl)Cl", "note": "(centres unmarked)", "hERG current change (%, negative = inhibition) at 1uM": -5.76}
{"smiles": "CCOC(=O)CSc1nc(C)c(C(=O)OCC)s1", "hERG current change (%, negative = inhibition) at 1uM": 7.79}
{"smiles": "COc1ccc(C(=O)Nc2ccc3c(c2)C(=O)N(C)C3=O)cc1OC", "hERG current change (%, negative = inhibition) at 1uM": 11.4}
{"smiles": "CSc1ncc(Cl)c(C(=O)Nc2cccnc2)n1", "hERG current change (%, negative = inhibition) at 1uM": 20.2}
{"smiles": "O=c1cc(O)c2sc3nc(C(F)(F)F)c4c(c3c2[nH]1)CCCCC4", "hERG current change (%, negative = inhibition) at 1uM": 1.18}
{"smiles": "O=C(COC(=O)C1CC(=O)N(c2ccc3c(c2)OCCO3)C1)NC1CCCc2ccccc21", "note": "(centres unmarked)", "hERG current change (%, negative = inhibition) at 1uM": 3.61}
{"smiles": "CCc1ccc(NC(=O)c2cc(-c3ccc(F)cc3)on2)cc1", "hERG current change (%, negative = inhibition) at 1uM": 14.4}
{"smiles": "Cc1cc(=O)cc(C)n1-c1ccccc1N", "hERG current change (%, negative = inhibition) at 1uM": 14.6}
{"smiles": "COc1ccc(OCC(=O)Nc2c3c(nn2C(C)(C)C)CSC3)cc1", "hERG current change (%, negative = inhibition) at 1uM": 13.5}
{"smiles": "CCCOc1ccc(/C=C/C(=O)N2CCOCC2)cc1", "hERG current change (%, negative = inhibition) at 1uM": 6.84}
{"smiles": "C=CCNC(=O)CN(c1ccc(F)c(Cl)c1)S(C)(=O)=O", "hERG current change (%, negative = inhibition) at 1uM": 12.1}
{"smiles": "Cc1c(CC(=O)N[C@@H](C)C(=O)O)c(=O)oc2c(C)c3occ(-c4ccccc4)c3cc12", "hERG current change (%, negative = inhibition) at 1uM": 15.6}
{"smiles": "Br.O=C(Cn1c(NCCCO)nc2ccccc21)c1ccc(Cl)cc1", "hERG current change (%, negative = inhibition) at 1uM": 4.8}
{"smiles": "COC(=O)C1=C(c2c(C)noc2C)C[C@@H]2CC[C@H]1N2C(=O)NCc1ccc(C(F)(F)F)cc1", "hERG current change (%, negative = inhibition) at 1uM": 4.74}
{"smiles": "O=C(O)Cn1cc(/C=c2/sc3nc4ccccc4n3c2=O)c2ccccc21", "hERG current change (%, negative = inhibition) at 1uM": 10.8}
{"smiles": "O=C(c1ccccc1F)N1CCCC(C(=O)N2CCN(c3ccccc3)CC2)C1", "note": "(centres unmarked)", "hERG current change (%, negative = inhibition) at 1uM": 9.84}
{"smiles": "COc1ccc(CNC(=O)c2ccc(CS(=O)Cc3cccc(Cl)c3)o2)cc1", "note": "(centres unmarked)", "hERG current change (%, negative = inhibition) at 1uM": 6.13}
{"smiles": "CCOc1ccccc1/C=C/c1onc(C)c1S(=O)(=O)N1CCC(C(=O)N(CC)CC)CC1", "hERG current change (%, negative = inhibition) at 1uM": 4.02}
{"smiles": "CC(=O)c1ccc([N+](=O)[O-])c(CS(=O)(=O)c2ccc(Cl)cc2)c1", "hERG current change (%, negative = inhibition) at 1uM": 10.8}
{"smiles": "CCOc1ccc(NC(=O)CN(C)C(=O)c2c(-c3c(F)cccc3Cl)noc2C)cc1OCC", "hERG current change (%, negative = inhibition) at 1uM": 0.132}
{"smiles": "CC(Oc1ccc(-c2ccccc2)c(F)c1)c1ccn(S(=O)(=O)c2ccc(Cl)cc2)n1", "note": "(centres unmarked)", "hERG current change (%, negative = inhibition) at 1uM": 9.07}
{"smiles": "COc1cc(NC(=S)N2CCN(C(c3ccccc3)c3ccccc3)CC2)cc(OC)c1", "hERG current change (%, negative = inhibition) at 1uM": 5.67}
{"smiles": "Fc1cccc(-c2n[nH]c(=S)n2-c2ccccc2)c1", "hERG current change (%, negative = inhibition) at 1uM": 14.1}
{"smiles": "CCc1sc(NC(C)=O)nc1-c1ccccc1", "hERG current change (%, negative = inhibition) at 1uM": -1.78}
{"smiles": "CCCCn1c(N)c(N(CCOC)C(=O)c2oc3ccc(OCC)cc3c2C)c(=O)[nH]c1=O", "hERG current change (%, negative = inhibition) at 1uM": 9.76}
